The results in this text go back to patent US20220283175A1, “METALLOENZYMES FOR BIOMOLECULAR RECOGNITION OF N-TERMINAL MODIFIED PEPTIDES” (Encodia, Inc., priority 2020, published 2022).

For the assay, the system named is immobilized set of 288 M64-modified peptides (17×17 combination of P1 and P2 residues). In words: multiplex encoding assay (heatmap data), P1 and P2 Gini scores. The settings on record: NTM M64. The class given is binding. The source says: To evaluate binding efficiencies of selected purified binders, a previously developed ProteoCode™ assay (disclosed in detail in US 20190145982 A1, incorporated herein) was used. This variant of the ProteoCode™ assay comprises contacting binder-coding tag conjugates with the N-terminally modified immobilized peptides associated with the recording tags. […] Sequencing of extended recording tags after the encoding cycle may be used to identify binder(s) that was (were) bound to the immobilized peptide. At the same time, estimating fractions of the recording tags being extended (encoded) during primer extension reaction provides estimate of efficiency of the encoding reaction, which directly correlates with binding affinity of the binder to the particular modified NTAA.
For the encoding assay, selected binding agents engineered from metalloenzyme scaffolds as described in the previous Examples 4-6 were used. Each binding agent was conjugated to a corresponding nucleic acid coding tag comprising barcode with identifying information regarding the binding agent. The coding tag specific for the binding agent was attached to SpyTag via a PEG linker, and the resulting fusions were reacted with binding agent-SpyCatcher fusion protein via SpyTag-SpyCatcher interaction, essentially as described in US 2021/0208150 A1. Briefly, amine-functionalized oligonucleotide coding tags were conjugated to a heterobifunctional linker containing an NHS ester, PEG24 linker and maleimide. Excess linker was removed by acetone purification, and excess linker in solution was removed by centrifugation. Purified oligonucleotide-PEG24-maleimide was incubated overnight with SpyTag peptide forming a conjugate via a cysteine residue. The sample was spun down to remove precipitate and the supernatant was transferred to a 10 k molecular weight filter to remove excess SpyTag peptide. […]

B1: 58 (protein)
chain: DWGYDDKNGPEQWSKLYPIANGNNQSPVDIKTSETKHDTSLKPISVSYNPATAKEIINVGHSFHVNFEDNDNRSVLKGGPFSDSYRLFQFHFHWGSTNEHGSEHTVDGVKYSAELHVAHWNSAKYSSLAEAASKADGLAVIGVLMKVGEANPKLQKVLDALQAIKTKGKRAPFTNFDPSTLLPSSLDFWTYPGSLTHPPLYESVTWIICKESISVSSEQLAQFRSLLSNVEGDNAVPMQHNNRPTQPLKGRTVRASF
modifications: Carbonic anhydrase I, M=M64
Consider B1, for which the “Specificity towards P1” value is listed as “Small”. The P1 score (Gini coefficient for P1 selectivity, n=17) stood at 0.3377. In addition, the P2 score (Gini coefficient for P2 tolerance, n=17) is given as 0.2358.
